Source: patent publication EP2767275A1, “Nortriptyline, haloperidol or prochlorperazine edisylate for use in the treatment of tuberculosis as well as two screening methods” (priority 2013, dated 2014)

Tested on: M. tuberculosis
Details: data not shown

Structure (SMILES) | bacteriostatic activity in plate assay of M. tuberculosis
O=C(CCCN1CCC(O)(c2ccc(Cl)cc2)CC1)c1ccc(F)cc1 [Haloperidol, 4-[4-(4-chlorophenyl)-4-hydroxy-1-piperidyl]-1-(4-fluorophenyl)-butan-1-one] | did not show bacteriostatic activity
CNCCC=C1c2ccccc2CCc2ccccc21 [Nortriptyline, 3-(10,11-dihydro-5H-dibenzo[a,d]cyclohepten-5-ylidene)-N-methyl-1-propanamine] | did not show bacteriostatic activity
CN1CCN(CCCN2c3ccccc3Sc3ccc(Cl)cc32)CC1 [Prochlorperazine edisylate, 2-chloro-10-[3-(4-methyl-1-piperazinyl)propyl]-10H-phenothiazine] | did not show bacteriostatic activity
